Source: paper PMC10073093

Biological target: Recombinant Notch-1 protein (UniProt P46531)
Experiment: ELISA
Conditions: ligand; Species, supplier and limits not stated. Human assumed (mouse Q9QXX0 is possible). Limits are the mature extracellular region from the candidate's features; any Fc carrier omitted. Species, supplier and limits not stated. Human assumed (mouse Q01705 is possible). Limits follow the usual commercial recombinant Notch-1 ectodomain fragment (N-terminal EGF repeats including ligand-binding EGF 11-12),; modification not given

UniProt P46531, sequence (P46531 19-526): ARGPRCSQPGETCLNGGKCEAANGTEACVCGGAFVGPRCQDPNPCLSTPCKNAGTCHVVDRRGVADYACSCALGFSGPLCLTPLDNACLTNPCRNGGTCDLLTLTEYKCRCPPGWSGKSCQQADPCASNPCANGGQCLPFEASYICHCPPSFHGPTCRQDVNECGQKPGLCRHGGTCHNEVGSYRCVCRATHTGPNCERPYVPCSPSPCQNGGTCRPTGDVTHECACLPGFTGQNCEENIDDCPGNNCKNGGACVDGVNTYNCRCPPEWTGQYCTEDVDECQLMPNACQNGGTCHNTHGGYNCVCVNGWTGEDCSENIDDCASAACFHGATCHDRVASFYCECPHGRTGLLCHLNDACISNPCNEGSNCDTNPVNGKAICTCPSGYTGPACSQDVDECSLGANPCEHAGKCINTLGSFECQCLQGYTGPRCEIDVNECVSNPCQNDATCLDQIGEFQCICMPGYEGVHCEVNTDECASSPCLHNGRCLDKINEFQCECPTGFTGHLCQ

Work on “Jagged-1 (a stretch of the chain, no sequence given)” yielded an EC50 of 0.145 µg/mL and a Kd of 1.76 nM.
